Results: PubChem BioAssay AID1030 (National Center for Advancing Translational Sciences (NCATS), 2008)
Out of some 220,000 compounds screened, about 16,000 (7.3%) were called active. This list was built around the results that the source calls inconclusive (neither active nor inactive); the mix of calls is not that of the screen. Calls come from the whole dose curve; as a rule, active = well fitted inhibition curve with a large enough effect (not every such curve was filed as active); inconclusive = small, poorly fitted or top-dose-only effect, or another doubt; inactive = no such curve, though single readings can be large or run the other way. Potencies of inconclusive entries are left out as doubtful fits.
Potency is the fitted concentration of half-maximal effect; tags give direction and shape of the fitted curve.
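Throughout, for activity, negative = inhibition: plate controls were no enzyme wells and a reference inhibitor.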

The compounds below were run against Aldehyde dehydrogenase 1A1 (Homo sapiens) (UniProt P00352) (assay: qHTS Assay for Inhibitors of Aldehyde Dehydrogenase 1 (ALDH1A1)). Conditions: Purified ALDH1A1, NADH fluorescence, propionaldehyde substrate; series mostly up to 75.3 µM.
Chain of UniProt P00352 (P00352 whole entry, looked up): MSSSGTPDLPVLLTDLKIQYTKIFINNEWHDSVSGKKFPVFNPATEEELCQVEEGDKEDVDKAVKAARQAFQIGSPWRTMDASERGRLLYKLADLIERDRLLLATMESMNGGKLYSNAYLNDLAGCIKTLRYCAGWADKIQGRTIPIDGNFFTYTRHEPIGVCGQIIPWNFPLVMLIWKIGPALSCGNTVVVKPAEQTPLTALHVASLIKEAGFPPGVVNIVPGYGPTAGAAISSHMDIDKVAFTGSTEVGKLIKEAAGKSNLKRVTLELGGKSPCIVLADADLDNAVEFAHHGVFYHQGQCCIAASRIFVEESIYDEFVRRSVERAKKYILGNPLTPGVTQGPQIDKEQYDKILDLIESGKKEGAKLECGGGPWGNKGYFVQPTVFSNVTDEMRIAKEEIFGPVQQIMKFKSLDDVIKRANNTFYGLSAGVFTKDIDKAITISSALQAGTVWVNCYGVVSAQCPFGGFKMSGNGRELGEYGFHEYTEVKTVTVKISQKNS
With O=C(CN1C(=O)S/C(=C\c2ccc(Cl)cc2)C1=O)NNC(=O)c1ccccc1O the Potency was “inactive”. For CSc1ccc(Cl)c(C(=O)OCC(=O)Nc2ccccc2OC(F)F)c1, the Potency was inconclusive [inhibitor, single point]. In the case of CCOC(=O)c1c(NC(=O)CC2SC(=NC)N(C)C2=O)sc(C)c1C (configuration not stated), the Potency is reported as inconclusive [inhibitor, full curve, poor fit]. For CCC1(C)CC2(CCCN(CCC(=O)c3ccccc3)C2)CCO1 (configuration not stated), the Potency was active: 0.708 µM. CCOc1cc(S(=O)(=O)NCCN2CCOCC2)c(C)cc1C was tested, and the Potency was inconclusive [inhibitor, single point]. O=C1CC(C(=O)Nc2ccc(C(=O)O)cc2)C(c2ccccc2)O1 (configuration not stated) was tested, and the Potency was inconclusive [inhibitor, partial curve]. For CC(C)c1ccc(NC(=O)COc2nncc3ccccc23)cc1, the Potency was inconclusive [inhibitor, partial curve, poor fit]. For C=Cc1ccccc1Cl, the Potency was inconclusive [inhibitor, single point]. In the case of CC1CCCCN1CCCNC(=O)c1ccc2c(=O)n(CCc3ccccc3)c(=O)[nH]c2c1 (configuration not stated), the Potency is reported as inconclusive [inhibitor, single point]. In the case of O=C(N/N=C/c1ccccn1)c1c[nH]c2ccccc12, the Potency is reported as “inactive”. CC(=O)OC1CC2C(C)(C)C(=O)CC[C@]2(C)C2CC[C@]3(C)C(=CC(=O)OC3c3ccoc3)[C@]12C (some centres not stated) was tested, and the Potency was “inactive”. With O=C(Cn1c(-c2ccco2)nc2ccccc21)N1CCCCC1 the Potency was inconclusive [inhibitor, partial curve]. COc1ccccc1Oc1ccc(-c2cnc3ccccc3n2)cc1[N+](=O)[O-] was tested, and the Potency was inconclusive [inhibitor, single point]. CS(=O)(=O)N1CCC[C@@]2(CCN(c3ncccn3)C2)C1 was tested, and the Potency was inconclusive [inhibitor, single point]. For COc1ccc(/C=N/NC(=O)c2cccc(Br)c2)cc1CSc1ccccn1, the Potency was inconclusive [inhibitor, single point]. For COC(=O)c1c(C#N)c(N)nc2c1CCC2, the Potency was inconclusive [inhibitor, partial curve]. With Cc1ccccc1N(CC(=O)N/N=C/c1ccc(N(C)C)cc1)C(=O)c1ccccc1 the Potency was inconclusive [inhibitor, partial curve]. O=C(OCc1nnc(-c2ccccc2)o1)c1cc(S(=O)(=O)N2CCOCC2)c(Cl)cc1Cl was tested, and the Potency was “inactive”. CCn1ncc(CN2CCN(C(=O)Nc3ccccc3C(=O)OC)CC2)c1C was tested, and the Potency was inconclusive [inhibitor, single point]. Cc1ccc(C)c(CN2C(=O)C3(OCCCO3)c3ccccc32)c1 was tested, and the Potency was inconclusive [inhibitor, single point]. For CC(=O)N1CCc2cc(Br)cc(S(=O)(=O)CCC(=O)N3CCN(c4ccccn4)CC3)c21, the Potency was “inactive”. CN(C)S(=O)(=O)c1cccc(NC(=O)Cn2cc(C(F)(F)F)cc(Cl)c2=O)c1 was tested, and the Potency was “inactive”. For CCC(C)NC(=O)CSC1=Nc2ccccc2C2=NC(c3ccccc3)C(=O)N12 (configuration not stated), the Potency was inconclusive [inhibitor, partial curve]. In the case of CCCc1[nH]nc2c1C(/C(C)=C/c1ccccc1)C(C#N)=C(N)O2 (configuration not stated), the Potency is reported as active: 14.1 µM. For CCCn1nnnc1SCC(=O)Nc1cccc(NC(=O)c2ccco2)c1, the Potency was inconclusive [inhibitor, single point]. With O=C(CSc1n[nH]c(-c2ccco2)n1)Nc1sc2c(c1C(=O)Nc1ccccc1)CCCC2 the Potency was “inactive”. Nc1ccccc1C(=O)CC(N)C(=O)O (configuration not stated) was tested, and the Potency was “inactive”. CCOC(=O)N1CCN(C(=O)CN(Cc2ccc(Cl)cc2)S(=O)(=O)c2ccccc2)CC1 was tested, and the Potency was inconclusive [inhibitor, partial curve]. For COC(=O)CCC(=O)Nc1ccc(OC)cc1, the Potency was inconclusive [inhibitor, single point]. For Nc1nc(N2CCN(c3cccc(Cl)c3)CC2)n[nH]1, the Potency was “inactive”. In the case of C=C(C)COc1ccc(-c2nc(N)nc(C)c2-c2ccc(OC)cc2)c(O)c1, the Potency is reported as inconclusive [inhibitor, partial curve]. For CC1=NN(C(C#N)c2ccc(F)cc2)C(C)(C)C1 (configuration not stated), the Potency was “inactive”. Cc1cc(OCC(=O)Nc2ccncc2)ccc1[N+](=O)[O-] was tested, and the Potency was active: 10 µM. With CC(C)(C)c1ccc(Oc2ccc(NC(=O)C3CC=CCC3C(=O)O)cc2)cc1 (configuration not stated) the Potency was inconclusive [inhibitor, single point]. C=CCn1c(N2CCCCCC2)nc2c1c(=O)n(C)c(=O)n2C was tested, and the Potency was inconclusive [inhibitor, partial curve]. COC(=O)C1CCN(C(=O)/C=C/c2ccc(OC)cc2)CC1 was tested, and the Potency was inconclusive [inhibitor, single point]. For CCOC(=O)c1c(O)c2ccccc2n(C)c1=O, the Potency was inconclusive [inhibitor, partial curve, poor fit]. For COC(=O)Nc1ccc2[nH]cc(CCNC(C)=O)c2c1, the Potency was “inactive”. With O=C(c1ccc(F)cc1)N1CCN(C2CCC(c3ccccc3)CC2)CC1 (configuration not stated) the Potency was inconclusive [inhibitor, partial curve]. COc1ccccc1-c1nn2c(-c3ccc(C(C)(C)C)cc3)nnc2s1 was tested, and the Potency was inconclusive [inhibitor, single point]. O=C(Nc1cccc(Cl)c1)Nc1cc(S(=O)(=O)N2CCOCC2)ccc1N1CCCC1 was tested, and the Potency was inconclusive [inhibitor, single point]. With CCOC(=O)c1[nH]c2ccc(OC)cc2c1NC(=O)NC(C)C the Potency was inconclusive [inhibitor, single point]. With COC(=O)C1=C(C)NC(=O)/C1=C\c1ccc2c(c1)OCO2 the Potency was inconclusive [inhibitor, partial curve]. In the case of CC(C)(SC(=S)N1CCOCC1)C(=O)O, the Potency is reported as inconclusive [inhibitor, single point]. O=C(NCc1ccccn1)C(=O)Nc1cccc2ccccc12 was tested, and the Potency was “inactive”. With O=C(COC(=O)CCC(=O)c1ccc2c(c1)OCCO2)NCc1ccc2c(c1)OCO2 the Potency was inconclusive [inhibitor, single point]. With O=C(CSc1ncnc2ccccc12)Nc1ccc2c(c1)OCO2 the Potency was active: 11.2 µM. In the case of Cn1c(SCc2cc(=O)[nH]c3ccccc23)nnc1-c1ccc(Br)cc1, the Potency is reported as “inactive”. In the case of CN(Cc1cccc2ncccc12)C(=O)CC1C(=O)NCCN1Cc1ccc(F)cc1 (configuration not stated), the Potency is reported as “inactive”. CCSc1nnc(NC(=O)CSc2nnc(CNC(=O)c3ccc(OC)cc3)o2)s1 was tested, and the Potency was inconclusive [inhibitor, partial curve]. COC(=O)NC(=S)N1CCOCC1 was tested, and the Potency was inconclusive [inhibitor, single point]. With CC(C)N1CC(O)=C(c2nc3ccccc3c(=O)[nH]2)C1=N the Potency was inconclusive [inhibitor, partial curve]. In the case of O=C(CC1Sc2ccccc2NC1=O)OCC(=O)N1CCc2ccccc21 (configuration not stated), the Potency is reported as inconclusive [inhibitor, partial curve]. CC(=O)/C(=N\Nc1ccccc1)Sc1nnc(-c2ccccc2)n1-c1ccccc1 was tested, and the Potency was “inactive”. In the case of COc1ccc2oc(C(=O)CCC(=O)O)c(N)c2c1, the Potency is reported as inconclusive [inhibitor, single point]. Cn1cnnc1SCC(=O)NCCC(c1ccccc1)c1ccccc1 was tested, and the Potency was “inactive”. For CCc1nc(N)c(C#N)c(-c2ccccc2OC)c1C, the Potency was inconclusive [inhibitor, partial curve]. For CCOC(=O)Cn1c(=S)[nH]c2c(oc3ccc(Cl)cc32)c1=O, the Potency was inconclusive [inhibitor, partial curve]. With O[C@H]([C@H](O)[C@@H](O)c1nc2ccccc2[nH]1)[C@@H](O)c1nc2ccccc2[nH]1 the activity, negative = inhibition was inactive: 5.56% [at 13.5 µM]. For CCCCOCCCNS(=O)(=O)Cc1ccccc1, the Potency was inconclusive [inhibitor, single point]. With CN1CCN(/N=C/c2ccc(N(c3ccccc3)c3ccccc3)cc2)CC1 the Potency was inconclusive [inhibitor, single point]. With COc1ccc(-c2c(NC(=O)C(C)C)n(C)c3ccccc3c2=O)cc1 the Potency was inconclusive [inhibitor, single point]. COc1ccc(CNC2CCCCC2C)c(OC)c1 (configuration not stated) was tested, and the Potency was “inactive”. In the case of COc1ccc2[nH]c(=O)c(CN(Cc3cccs3)Cc3nnnn3Cc3ccccc3)cc2c1, the Potency is reported as inconclusive [inhibitor, partial curve]. Cc1ccc(C)c(NC(=O)CSc2nnc(CSc3nc(C)cc(C)n3)n2Cc2ccco2)c1 was tested, and the Potency was “inactive”. For COc1cc(/C=N/NC(=O)c2nc3ccccn3c2C)cc(OC)c1O, the Potency was inconclusive [inhibitor, single point]. For COc1ccc(CN2CCN(c3cccc(C)c3C)CC2)cc1OC, the Potency was inconclusive [inhibitor, single point]. For Cc1c(NC(=O)C(C)OC(=O)c2cc(-c3cccc4ccccc34)nc3ccccc23)c(=O)n(-c2ccccc2)n1C (configuration not stated), the Potency was inconclusive [inhibitor, single point]. For COc1ccc(NC(=O)c2cccc(-n3c(C)ccc3C)c2)c(OC)c1, the Potency was “inactive”. In the case of COc1ccccc1CNC(=O)CC(C)C, the Potency is reported as “inactive”. For CCOc1ccccc1NC=C1C(=O)OC(C)(C)OC1=O, the Potency was active: 2.24 µM. With C=CCN1C(=O)C(O)(CC(=O)c2ccc(OC)cc2OC)c2cc(Br)ccc21 (configuration not stated) the Potency was inconclusive [inhibitor, single point].
